Results as given in PubChem BioAssay AID1508623 (National Center for Advancing Translational Sciences (NCATS), 2021).
The campaign covered roughly 48,000 compounds. About 450 (0.94%) were called active. Not shown: some 19% with an inconclusive outcome. Calls follow the shape of the dose curve; as a rule, active = well fitted inhibition curve with a large enough effect; inconclusive = small, poorly fitted or top-dose-only effect; inactive = no such curve, though single readings can be large or run the other way. Some of the results follow.

Assay: Primary qHTS for Identification of Small Molecule Inhibitors of Huntingtin Promoter Activity; also: nearly all actives have a fitted effect of over 50% in size
Conditions: HEK293 HTT promoter firefly luciferase reporter (activity 0% = vehicle and -100% = no light), 24 h; series mostly up to 57.5 µM; activity change, negative = inhibition: at the top concentration
Outline: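 Luminescence was read after Dual-Glo reagent and a 10 min room-temperature incubation. Values were normalized to vehicle (0% activity) and zero RLU (-100% activity). Reporter HEK293 cells had been exposed to compounds (up to 57.5 uM final) for 24 h.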

Activity change, negative = inhibition, inactive:
COc1ccc(-c2noc(-c3ccc(NC4CCCC4)c([N+](=O)[O-])c3)n2)cc1 -11.6%
CC(=O)c1ccc(N2CCN(C(=O)c3cc4cc5cc(C)ccc5nc4s3)CC2)cc1 8.11%
Cc1ccc(C)c(NC(=O)C2CCCN(S(=O)(=O)c3ccc4[nH]c(=O)ccc4c3)C2)c1 (configuration not stated) -14.8%
Cc1ccc(C(=O)c2oc3ccccc3c2NC(=O)c2cc(-c3ccccc3)on2)cc1F -1.06%
Cc1noc(Cn2c(=O)c3cc4c(cc3n(CC(=O)Nc3cccc(Cl)c3)c2=O)OCO4)n1 -20.6%
COc1ccc(NC(=O)[C@@H](c2ccccc2)N2Cc3ccccc3C2=O)cc1OC -17.1%
CC(=O)Nc1nonc1-c1nnc(SCC(=O)Nc2ccc(C)cc2C)n1C -10.3%
CN(C)CCOC(C)(c1ccccc1)c1ccccn1 (configuration not stated) 14%
CC1CCc2c(sc(NC(=O)COc3ccccc3)c2C(=O)Nc2ccccc2Cl)C1 (configuration not stated) -8.54% [at 11.5 µM]
Cc1ccc(CSCC(=O)N2CCN(c3cc(Cl)ccc3C)CC2)cc1 -14.6%
C=CCNC(N)=S 1.34%
Cc1ccc(-n2nc(C(=O)NCCN(C)C)c(=O)n(C)c2=O)cc1 -3.26%
COc1ccc(C2C(C(N)=O)=C(C)Nc3nc(-c4ccccc4Cl)nn32)cc1 (configuration not stated) -0.605%
Cc1[nH]c2ccccc2c1C(=O)C(=O)NC1CC(=O)N(c2cccc(F)c2)C1 (configuration not stated) 4.01%
COc1cccc(-c2cc(=O)c3ccccc3o2)c1N 34%
Cn1c(=O)[nH]c(=O)c2c1nc1n(CCO)c(-c3ccccc3)cn21 6.53%
CCCCOc1ccc(-c2cc3c(=O)n(CC(=O)Nc4ccc(Cl)cc4Cl)ccn3n2)cc1 -8.93%
O=C(CSc1nc2c(cnn2-c2ccc(F)cc2)c(=O)[nH]1)Nc1ccc(Br)cc1 -14.3%
Cc1ccc(-c2nn(CC(=O)NC3CCCCC3)c3c2cnc2ccc(F)cc23)cc1C -10.8%
CCOc1cccc2cc(-c3nnc(Nc4ccc(F)c(Cl)c4)s3)c(=O)oc12 27.1%
CC(=O)c1ccc2c(c1)N(CCCN(C)C)c1ccccc1S2 -17.2%
COc1cccc(CNC(=O)c2cc(=O)[nH]c3ccc(S(=O)(=O)N4CCCCC4)cc23)c1 -17.4%
CC(C)C(=O)OC1=CN(Cc2ccccc2)S(=O)(=O)c2ccccc21 -11.2%
Cc1ccc(Cl)cc1NC(=O)CN(C)S(=O)(=O)c1ccc2c(c1)n(C)c(=O)c(=O)n2C -5.04%
COc1ccc(CCNC(=O)c2cc(-c3ccccc3)nc3ccccc23)cc1OC -16.9%
CCn1cc(C(=O)OCC(=O)Nc2cc(C)cc(C)c2)c(=O)c2ccc(C)nc21 -13.8%
COC(=O)c1scc(-c2ccc(C)cc2)c1S(=O)(=O)Nc1cccc(C(F)(F)F)c1 23.7%
COC(=O)c1sc2cccc(F)c2c1S(=O)(=O)Nc1cc(OC)cc(OC)c1 -21.1%
O=C(CSc1nc2ccccc2c(=O)n1CCC(=O)NC1CCCCC1)Nc1ccccc1Cl -5.43%
Cc1nn(CCCC(=O)NCc2ccccc2)c(=O)c2nn(-c3ccccc3)c(C)c12 -18.5%
C[C@@H](O)[C@H]1C(=O)N2C(C(=O)O)=C(S[C@@H]3CN[C@H](CNS(N)(=O)=O)C3)[C@H](C)[C@H]12 10.2%
CCC(=O)N1CCc2cc(S(=O)(=O)NCCC(=O)Nc3ccc(OC)c(Cl)c3)ccc21 -10.1%
CCc1nnc2c(NCc3ccccc3OC)nc3ccccc3n12 1.58%
CC(C)c1nnc(N2C(=O)c3oc4ccccc4c(=O)c3C2c2cccc(O)c2)s1 (configuration not stated) -6.22% [at 11.5 µM]
CCOc1ccc(CC(=O)Nc2nnc3n2CCS3)cc1 2.77%
COC(=O)CNC(=O)C(Cc1ccccc1)NS(=O)(=O)c1ccc2c(c1)c(=O)n(C)c(=O)n2C (configuration not stated) -7.94%
CCN(C(=O)C1CCN(S(=O)(=O)c2ccc3c(c2)CCCN3C(=O)C2CCC2)CC1)c1cccc(C)c1 -8.77%
Cc1ccc(NC(=O)Cn2c(=O)n(CCCCCC(=O)NCc3ccc(F)cc3)c(=O)c3sccc32)c(C)c1 -28.2%
Cc1c(Cl)cccc1NC(=O)c1cnc2sc(N3CCCC3)nn2c1=O 3.72%
COCCN1Cc2cccc(C(=O)Nc3ccc(C)cc3C)c2C1=O -0.462%
Cc1cc2c(cc1S(=O)(=O)N1CCC(C)CC1)OCC(=O)N2 -32.4%
O=C(COc1ccccc1)Nc1ccc(S(=O)(=O)N(Cc2ccccc2)c2ccccc2)cc1 -7.44%
Oc1c(I)cc(Cl)c2cccnc12 -12.1%
Cc1ccc(-c2nnc(SCC(=O)N3CCc4ccccc43)o2)cc1 -5.41%
CCCC12CN3CC(CCC)(CN(C1)C3c1c[nH]c3ccccc13)C2=O (configuration not stated) -13.1%
O=S(=O)(c1ccc2ccccc2c1)n1nc(-c2ccco2)nc1NCc1cccc(Cl)c1 -25.1%
Cc1ccc(CNC(=O)c2ccc3c(c2)N(Cc2ccccc2F)C(=O)c2ccccc2S3(=O)=O)cc1 -15.9%
COc1ccc(S(=O)(=O)c2cn(C)c3cc(N4CCCC4)c(F)cc3c2=O)cc1 -4.74%
COc1cccc(CNC(=O)c2cnc(N3CCCC3)nc2C)c1 -10%
CN1CCN(C(CNC(=O)C(=O)Nc2ccc(F)cc2F)c2ccc3c(c2)OCO3)CC1 (configuration not stated) 0.301%
CCOc1ccc(CCNC(=O)Cn2nnc(-c3ccc(OC)c(OC)c3)n2)cc1OCC -18%
CC(C)Oc1ccc(CNS(=O)(=O)c2cnc(N)nc2)cc1 0.433%
CC(C)Cn1cnc2c1c(=O)n(C)c(=O)n2C 5.01%
COc1cc(NC(=O)c2nnn(CC(=O)Nc3ccccc3)c2N)cc(OC)c1 -14%
Cc1ccc2nc(-c3ccc(NC(=O)COc4c(C)ccc(C)c4C)cc3)sc2c1 30.9%
CC(C)(C#N)c1cc(Cn2cncn2)cc(C(C)(C)C#N)c1
O=C(NC1CCCCC1)c1ccc2c(c1)N(Cc1ccccc1)C(=O)c1ccccc1S2 -2.08%
O=C(CN1C(=O)C2(SCC(=O)N2c2ccccc2)c2ccccc21)NCc1ccccc1Cl (configuration not stated) -15.6%
CCCc1nn2c(=O)cc(COC(=O)c3ccc(NC(=O)C(C)Oc4ccccc4)cc3)nc2s1 (configuration not stated) -15.2%
CCCCNc1nc(Oc2ccc(=O)n(C)n2)nc(N(C)C)n1 7.64%
COc1ccc(C(=O)c2cn(Cc3ccc(C)cc3)c3cc4c(cc3c2=O)OCO4)cc1 -28.1%
Cc1c(Cl)cccc1NC(=O)CCn1c(=O)c2cccn2c2ccccc21 -7.32%
Cc1ccc2c(CC(=O)Nc3ccccc3C(F)(F)F)coc2c1C -0.736%
CC(CNC(=O)C1CCN(Cc2cc3ccccc3n2Cc2ccccc2)CC1)c1ccccc1 (configuration not stated) -24.9%
COc1ccc(Br)cc1CNC(=O)c1ccc2c(c1)nc1n2CCCCC1 -15.6%
Cc1cccc(CN2C(=O)c3ccccc3S(=O)(=O)c3ccc(C(=O)N4CCN(c5cc(C)ccc5C)CC4)cc32)c1 -18.9%
CCc1ccc(-c2cc3c(N4CCN(c5ccccc5)CC4)nccn3n2)cc1 -2.9%
COc1cccc(C(=O)n2nc(-c3ccco3)nc2NCc2cccs2)c1 9.07%
Cc1cccc(-c2nc3nc(C)cc(N4CCN(c5ccccc5)CC4)n3n2)c1 -1.3%
COc1ccc(NC(=O)N2CCN(c3cc(-c4noc(C)n4)ccc3C)CC2)c(OC)c1 -20.4%
COc1cccc(N2CCN(Cc3nnc(-c4ccc5c(c4)OCO5)o3)CC2)c1 -4.65%
CC(C)(C)C1CCc2c(sc(NC(=O)c3ccncc3)c2C(=O)Nc2ccccc2Cl)C1 (configuration not stated) 1.06%
Cc1c(C(=O)NCc2ccccc2Cl)sc2nc3n(c(=O)c12)CCC3 22.9%
COc1ccc(N(CC(=O)NCc2ccc(C)cc2)S(=O)(=O)c2c(C)[nH]c(=O)[nH]c2=O)cc1 -8.21%
Cc1cc(C)cc(N2CCn3c2nc2c3c(=O)n(CCc3ccccc3)c(=O)n2C)c1 2.86%
Cc1ccc(-c2nc3c4ccccc4n(Cc4cccc(Cl)c4)c(=O)n3n2)cc1 -18.6%
CCN1CCN(CCCNC(=O)Cn2nc(C)n3c(cc4cc(C)ccc43)c2=O)CC1 4.09%
O=C(/C=C/N1C[C@@H]2C[C@@H]1CN2c1ccccn1)c1ccccc1O -10.7%
CCc1ccc(S(=O)(=O)c2nnn3c2nc(N2CCCC(C)C2)c2cc(Cl)ccc23)cc1 (configuration not stated) 0.473%
COc1ccc2nc(N3CCN(C(=O)c4ccco4)CC3)sc2c1 8.61%
COc1ccc(OC)c(CNC(=O)C2COc3ccccc3C2)c1 (configuration not stated) -8.86%
CCOC(=O)Cc1ccc(NC(=O)N2CC(CC)Oc3ccccc32)cc1 (configuration not stated) -8.99%
COc1cccc(Cn2cc(S(=O)(=O)c3ccc(C)cc3)c(=O)c3cc4c(cc32)OCO4)c1 0.0694%
Cc1ccc(NC(=O)CSc2[nH]c(=O)ncc2C)cc1 62.2%
Clc1ccc(CSc2nc3ncccc3[nH]2)cc1 59.2%
Cc1ccc(NC(=O)Cc2ccc(NC(=O)N3CCCCc4ccccc43)cc2)cc1 -28.6%
Cc1cc(Cl)ccc1NC(=O)CN1C(=O)C(=O)c2ccccc21 -10.5%
CSc1cccc(NC(=O)Cn2nnc(C(=O)NCCc3ccccc3)c2N)c1 -21.7%
CCN1CCN(C(c2ccccc2)c2c(O)cc(C)n(CCOC)c2=O)CC1 (configuration not stated) 13%
CCCCC(=O)Nc1ccc(C(=O)OCc2cc(=O)n3nc(C4CC4)sc3n2)cc1 -18.7%
COC(=O)C1=C(c2ccccc2)c2ccccc2S(=O)(=O)N1CC(=O)Nc1ccccc1C(F)(F)F -13.5%
COc1ccc(S(=O)(=O)Cc2ccc(C(=O)NC3CCCCC3)o2)cc1 -34.8%
Cc1cccc(N2CCN(c3ccc(C(=O)O)cc3NC(=O)c3ccccc3F)CC2C)c1 (configuration not stated) -26.3%
C=CCN1CCc2nc(N)sc2CC1 9.08%
Cn1c(=O)n(CCc2ccccc2)c(=O)c2c1nc1n2CCN1c1ccc(Cl)cc1 -1.95%
CC(C(=O)Nc1ccccc1C(F)(F)F)n1nc(-c2ccccc2)c2c(c1=O)CCCC2 (configuration not stated) -29.4%
Cc1cc(C)c2c(-n3cccc3)c(C(=O)NCCc3ccccc3)sc2n1 1.31%
